In all, about 330,000 compounds went through this assay and about 560 (0.17%) were called active. The call rests on the fitted dose curve; in most records, active means well fitted inhibition curve with a large enough effect; inconclusive means small, poorly fitted or top-dose-only effect, or effect the other way; inactive means flat fitted curve, though single readings scatter. Inconclusive means that the source gave no clear call. Potencies of inconclusive entries are left out as doubtful fits.
target: ATP-dependent 6-phosphofructokinase (Trypanosoma brucei brucei) (UniProt O15648); experiment: qHTS Assay to Find Inhibitors of T. brucei phosphofructokinase; further: nearly all actives have a fitted effect of over 60% in size; conditions: T. brucei PFK, ADP-Glo luminescence; series mostly up to 57.5 µM
Chain of UniProt O15648 (O15648 whole entry, looked up): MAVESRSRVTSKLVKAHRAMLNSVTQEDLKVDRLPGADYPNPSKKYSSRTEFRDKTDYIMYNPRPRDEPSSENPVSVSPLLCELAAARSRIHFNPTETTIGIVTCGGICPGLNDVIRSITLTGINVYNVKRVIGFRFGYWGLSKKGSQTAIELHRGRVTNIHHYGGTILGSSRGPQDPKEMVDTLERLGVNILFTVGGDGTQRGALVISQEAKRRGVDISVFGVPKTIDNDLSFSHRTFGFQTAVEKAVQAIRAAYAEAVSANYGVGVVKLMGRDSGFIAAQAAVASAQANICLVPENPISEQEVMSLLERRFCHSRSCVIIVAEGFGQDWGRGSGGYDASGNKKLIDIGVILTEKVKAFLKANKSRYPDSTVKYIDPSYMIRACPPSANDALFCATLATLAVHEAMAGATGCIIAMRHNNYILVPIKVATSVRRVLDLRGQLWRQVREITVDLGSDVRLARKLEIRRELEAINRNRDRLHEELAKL
Source text: NIH Molecular Libraries Probe Production Network [MLPCN] NIH Chemical Genomics Center [NCGC] Grant: 1 R03 MH092153-01 PI Name: Malcolm Walkinshaw, University of Edinburgh NCGC Assay Overview: Various species of the protozoan family Trypanosomatidae are responsible for a range of serious human diseases in tropical and subtropical areas of the world. […] Many of the disorders caused by trypanosomatids are fatal if left untreated, but most currently used drugs are inefficient and toxic. […] A luminescence-based assay for T. brucei PFK activity has been developed which uses luciferase to detect production of ADP. […] To directly measure the ADP product of the PFK reaction, we used the ADP-Glo detection kit (Promega), which utilizes two separate reactions to 1) deplete all remaining uncatalyzed ATP and 2) convert all remaining ADP to ATP, which is then detected through a traditional luciferase-coupled reaction. […]
NCGC Assay Protocol Summary: NCGC Assay Protocol Summary: Substrate buffer was dispensed into white, solid 1536-well plates at 3uL/well in 0.1M triethanolamine (TEA) buffer, pH 8.0, containing final concentrations of 5 mM MgCl2, 0.01% Tween20, 0.5 mM fructose-6-phosphate (F6P) and 0.1mM ATP. […] The plates were measured on a ViewLux plate reader for luminescent signal using a clear filter with a one second exposure. The %Activity was determined from the corrected luminescence values. […]
Potency means the concentration at half of the fitted maximal effect; tags describe the fitted curve by direction and shape.

| SMILES | Potency |
| --- | --- |
| CCS(=O)(=O)C1=NN2C(=N)/C(=C\c3ccc(OS(=O)(=O)c4ccccc4)c(OC)c3)C(=O)N=C2S1 | inconclusive [falling, single point] |
